Assay results taken from patent US20250059139A1, “COMPOUNDS FOR TREATMENT OF CANCER” (THE JOHNS HOPKINS UNIVERSITY, priority 2021, published 2025).

System: AHR protein in LNCaP cells
Assay: AHR translocation and downregulation in LNCaP cells (immunoblot)
Format: cell-based, human
Experimental: Western Blot Analysis. Analysis and quantification of protein expression via immunoblot was performed as previously described (Brennen 2021). All assays were performed with total cell lysates from an equal number (i.e., 100,000) of cells loaded per lane for accurate comparisons across cell lines and conditions.

## COc1cccc2c1c(O)c(C(=O)N(C)c1ccc(C(F)(F)F)cc1)c(=O)n2C [TasQ, Tasquinimod]
  time to translocation of the AHR from the cytosol to the nucleus: < 30 min
